# By IC50 is meant the dose at which the fit gives 50% viability; where the fit passes the top or lowest dose, that dose stands as a limit. For AUC the same curve is integrated over the 256-fold range of doses and scaled to a fraction; the more sensitive the line, the further below 1. For some of these results: An inferred top dose comes from the curve model; the source does not state it.
# Columns and labels:
# Assay in all cases: Viability of human cancer cell lines after 72 h of drug (GDSC screen)
# AV-951 = compound: COc1cc2nccc(Oc3ccc(NC(=O)Nc4cc(C)on4)c(Cl)c3)c2cc1OC [AV-951]; conditions: top dose 0.128 µM; top dose inferred
# Protocol: (§1)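 Human cancer cell lines in 384-well plates, medium with 10% serum, drug for 72 h over a 256-fold dose range (nine 2-fold or five 4-fold steps up to the top dose). Adherent lines were fixed and stained with the nucleic acid dye Syto60, suspension lines read with resazurin; signal relative to control wells, capped at 0 and 100%. One two-parameter sigmoid per drug and line, fitted in a mixed model over all curves with the slope shared within a line.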
# I-BET-762 = compound: CCNC(=O)C[C@@H]1N=C(c2ccc(Cl)cc2)c2cc(OC)ccc2-n2c(C)nnc21 [I-BET-762]; conditions: top dose 20 µM; top dose inferred
# Protocol: as §1
# HG-6-64-1 = compound: CCN1CCN(Cc2ccc(NC(=O)c3ccc(C)c(/C=C/c4cnc5[nH]ccc5c4OC)c3)cc2C(F)(F)F)CC1 [HG-6-64-1]; conditions: top dose 5.12 µM; top dose inferred
# Protocol: as §1
# Trametinib = compound: CC(=O)Nc1cccc(-n2c(=O)n(C3CC3)c(=O)c3c(Nc4ccc(I)cc4F)n(C)c(=O)c(C)c32)c1 [Trametinib]; conditions: top dose 1 µM
# Protocol: as §1
# MS-275 = compound: Nc1ccccc1NC(=O)c1ccc(CNC(=O)OCc2cccnc2)cc1 [MS-275]; conditions: top dose 5 µM; top dose inferred
# Protocol: as §1
# KIN001-244 = compound: O=C(NC(COc1ccc2[nH]c(=O)[nH]c2c1)c1ccccc1)c1cccn(Cc2ccc(F)c(F)c2)c1=O [KIN001-244]; conditions: top dose 20 µM; top dose inferred
# Protocol: as §1
# PF-4708671 = compound: CCc1cncnc1N1CCN(Cc2nc3ccc(C(F)(F)F)cc3[nH]2)CC1 [PF-4708671]; conditions: top dose 10 µM; top dose inferred
# Protocol: as §1
Cell Line,AUC (AV-951),IC50 (AV-951),AUC (I-BET-762),IC50 (I-BET-762),AUC (HG-6-64-1),IC50 (HG-6-64-1),AUC (Trametinib),IC50 (Trametinib),AUC (MS-275),IC50 (MS-275),AUC (KIN001-244),IC50 (KIN001-244),AUC (PF-4708671),IC50 (PF-4708671)
"JM1 (B-cell lymphoma, suspension)",0.981,> 128 nM,0.598,2230 nM,0.78,1810 nM,0.979,> 1000 nM,0.539,392 nM,0.877,15200 nM,0.983,> 10000 nM
"JSC-1 (B-cell lymphoma, suspension)",0.976,> 128 nM,0.468,1020 nM,0.875,4960 nM,0.88,> 1000 nM,0.481,278 nM,0.689,4210 nM,0.968,> 10000 nM
"JURL-MK1 (chronic myeloid leukaemia, suspension)",0.827,77.7 nM,0.762,7120 nM,0.051,< 20 nM,0.227,10.1 nM,0.686,1030 nM,0.752,6590 nM,0.891,> 10000 nM
"JVM-2 (lymphoid neoplasm, suspension)",0.952,> 128 nM,0.788,11000 nM,0.897,> 5120 nM,0.876,> 1000 nM,0.92,> 5000 nM,0.859,> 20000 nM,0.961,> 10000 nM
"JVM-3 (lymphoid neoplasm, suspension)",0.986,> 128 nM,0.889,> 20000 nM,0.985,> 5120 nM,0.766,374 nM,0.976,> 5000 nM,0.917,> 20000 nM,0.963,> 10000 nM
"JiyoyeP-2003 (Burkitt lymphoma, suspension)",0.991,> 128 nM,0.675,3590 nM,0.791,2000 nM,0.975,> 1000 nM,0.756,1520 nM,0.867,14500 nM,0.929,> 10000 nM
"K5 (thyroid, adherent)",0.987,> 128 nM,0.96,> 20000 nM,0.736,1450 nM,0.077,< 3.91 nM,0.563,460 nM,0.816,10500 nM,0.911,> 10000 nM
"KALS-1 (glioma, adherent)",0.976,> 128 nM,0.872,> 20000 nM,0.728,1850 nM,0.408,31.8 nM,0.568,514 nM,0.884,> 20000 nM,0.977,> 10000 nM
"KARPAS-45 (lymphoblastic leukaemia, suspension)",0.989,> 128 nM,0.417,771 nM,0.655,795 nM,0.991,> 1000 nM,0.483,284 nM,0.696,3980 nM,0.973,> 10000 nM
"KARPAS-299 (anaplastic large cell lymphoma, suspension)",0.99,> 128 nM,0.928,> 20000 nM,0.976,> 5120 nM,0.991,> 1000 nM,0.612,598 nM,0.904,18800 nM,0.96,> 10000 nM
"KARPAS-422 (B-cell lymphoma, suspension)",0.979,> 128 nM,0.675,3810 nM,0.894,> 5120 nM,0.973,> 1000 nM,0.724,1330 nM,0.794,9080 nM,0.988,> 10000 nM
"KE-37 (lymphoblastic leukaemia, suspension)",0.99,> 128 nM,0.574,1890 nM,0.616,614 nM,0.994,> 1000 nM,0.617,606 nM,0.509,1320 nM,0.974,> 10000 nM
"KELLY (neuroblastoma, adherent)",0.989,> 128 nM,0.802,8820 nM,0.882,4580 nM,0.646,152 nM,0.753,1540 nM,0.846,12600 nM,0.989,> 10000 nM
"KG-1 (acute myeloid leukaemia, suspension)",0.959,> 128 nM,0.561,1800 nM,0.475,275 nM,0.893,969 nM,0.783,1870 nM,0.879,16700 nM,0.965,> 10000 nM
"KGN (ovary, adherent)",0.969,> 128 nM,0.498,1230 nM,0.581,561 nM,0.776,486 nM,0.718,1500 nM,0.794,11500 nM,0.905,> 10000 nM
"KINGS-1 (glioma, adherent)",0.973,> 128 nM,0.917,> 20000 nM,0.653,1000 nM,0.791,653 nM,0.784,3030 nM,0.847,> 20000 nM,0.939,> 10000 nM
"KM12 (large intestine, adherent)",0.955,> 128 nM,0.87,> 20000 nM,0.726,1500 nM,0.869,> 1000 nM,0.738,1600 nM,0.907,> 20000 nM,0.964,> 10000 nM
"KM-H2 (Hodgkin lymphoma, suspension)",0.986,> 128 nM,0.992,> 20000 nM,0.893,4440 nM,0.992,> 1000 nM,0.764,–,0.873,14400 nM,0.809,4270 nM
"KMOE-2 (acute myeloid leukaemia, suspension)",0.989,> 128 nM,0.622,2610 nM,0.798,2150 nM,0.028,< 3.91 nM,0.777,1800 nM,0.824,10200 nM,0.973,> 10000 nM

# Reference: the supplement of paper PMC4967469
